Laboratory results reported in article PMC4336329 (PLoS ONE, 2015).
Among all 310,000 compounds or so, about 2,200 (0.71%) showed an effect of 50% or more. Effects have a minus sign here. This is one part of the list.

Biological target: human ether-à-go-go-related gene (hERG) potassium channel (human, UniProt Q12809)
Experiment: primary screen, population patch clamp on CHO cells stably expressing hERG

Chain of human ether-à-go-go-related gene (hERG) potassium channel (Q12809 whole entry, looked up): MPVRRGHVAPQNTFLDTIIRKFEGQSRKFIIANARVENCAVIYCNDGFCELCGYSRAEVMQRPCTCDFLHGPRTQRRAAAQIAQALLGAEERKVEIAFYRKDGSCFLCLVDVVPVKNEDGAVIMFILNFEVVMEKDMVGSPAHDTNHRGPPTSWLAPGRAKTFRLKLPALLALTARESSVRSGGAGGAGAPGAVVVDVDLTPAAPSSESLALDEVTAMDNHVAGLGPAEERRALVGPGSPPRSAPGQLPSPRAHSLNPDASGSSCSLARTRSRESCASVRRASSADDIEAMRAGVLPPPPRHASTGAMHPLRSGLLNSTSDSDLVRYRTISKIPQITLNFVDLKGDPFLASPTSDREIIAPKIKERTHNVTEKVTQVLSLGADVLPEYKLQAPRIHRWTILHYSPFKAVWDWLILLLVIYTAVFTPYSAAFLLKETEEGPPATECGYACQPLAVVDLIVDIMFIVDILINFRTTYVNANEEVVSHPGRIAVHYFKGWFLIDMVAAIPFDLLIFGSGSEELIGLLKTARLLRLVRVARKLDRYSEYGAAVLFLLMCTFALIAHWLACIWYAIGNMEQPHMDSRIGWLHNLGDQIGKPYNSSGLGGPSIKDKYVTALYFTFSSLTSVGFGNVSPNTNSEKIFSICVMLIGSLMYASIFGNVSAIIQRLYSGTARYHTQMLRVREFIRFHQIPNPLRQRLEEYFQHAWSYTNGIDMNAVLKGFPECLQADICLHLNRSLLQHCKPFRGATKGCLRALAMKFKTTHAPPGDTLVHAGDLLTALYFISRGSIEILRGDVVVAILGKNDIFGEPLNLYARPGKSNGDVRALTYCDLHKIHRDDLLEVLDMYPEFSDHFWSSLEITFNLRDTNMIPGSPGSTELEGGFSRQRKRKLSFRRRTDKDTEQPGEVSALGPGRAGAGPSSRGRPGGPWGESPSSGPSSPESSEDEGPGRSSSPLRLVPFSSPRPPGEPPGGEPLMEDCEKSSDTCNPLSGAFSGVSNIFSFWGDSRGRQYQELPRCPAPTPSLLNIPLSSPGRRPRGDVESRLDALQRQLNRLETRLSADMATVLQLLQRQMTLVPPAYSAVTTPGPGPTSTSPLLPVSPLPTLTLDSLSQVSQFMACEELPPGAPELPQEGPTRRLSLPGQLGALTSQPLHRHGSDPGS

Structure (SMILES) | hERG current change (%, negative = inhibition) at 1uM
Cc1n[nH]c(C)c1CNCc1c(C(=O)N2CCCCCCC2)nc2ccc(Cl)cn12 | 8.06%
O=C(CSc1nnnn1-c1ccccc1)Nc1ncc2c(n1)CC(c1ccccc1)CC2=O (centres unmarked) | 10.4%
CC[C@@]12C(=O)N(c3cccc(F)c3)C(=O)N1[C@H](c1cccc(C)c1)[C@@H]1C(=O)N(Cc3ccccc3)C(=O)[C@@H]12 | 11.6%
COc1ccccc1CN(C)c1ccc(S(=O)(=O)N2CCN(C)CC2)cn1 | 6.05%
O=C(C(Cc1ccccc1)NS(=O)(=O)c1ccc(F)cc1)N1CCC2(CC1)OCCO2 (centres unmarked) | 0.157%
CC[C@H](C)[C@H](NC(N)=O)C(=O)Nc1ccccc1F | 7.62%
C#CCNc1nc(C(C)C)nc2c1nnn2Cc1ccccc1F | 11.9%
CC[C@H](C)[C@H](NC(=O)OCc1ccccc1)C(=O)OCC(=O)N(C)CC(=O)Nc1ccccc1Cl | 0.675%
NC(=O)COC(=O)c1ccccc1OCc1ccccc1 | 12.8%
COc1ccccc1-c1nnc(SC(C)C(=O)O)n1-c1ccccc1 (centres unmarked) | 12.5%
CCOc1ccccc1NC=C1C(=O)OC2(CCCCC2)OC1=O | 14.4%
Cc1ccc(NC(=O)c2ccco2)c(NC(=O)Cc2cccs2)c1 | 5.15%
CC1=C(C)CC(C(=O)NCCCN2CCCC2=O)C(C(=O)O)C1 (centres unmarked) | -0.886%
O=C(COC(=O)c1ccccn1)Nc1c(Cl)cccc1Cl | 5.86%
Cc1cc(C)nc(SCc2ccc(C(=O)N/N=C/C3CCCCC3)cc2)n1 | 12.1%
Cc1cc(/C=N/n2c(COc3ccccc3C)nc3ccccc3c2=O)c(O)c([N+](=O)[O-])c1 | 11.7%
N/C(=N\OC(=O)CCCOc1ccccc1)c1cccc([N+](=O)[O-])c1 | -0.923%
CCO[C@@H]1c2c(ccc3ccc(=O)oc23)OC(C)(C)[C@H]1O | 14.2%
COc1cc(C)c(/C=C(\C#N)C(=O)Nc2ccc(C)cc2)cc1C(C)C | 10.2%
Cc1nc(NC(=O)CN2CCOCC2)sc1C(=O)N(C)C | 10.2%
Cc1nc(N2CCN(c3ccccn3)CC2)c2c(C)c(C(=O)Nc3ccc(F)cc3Cl)sc2n1 | -1.8%
Cc1ccc(C(C)n2cc(C(=O)NCCN3CCN(C)CC3)nn2)cc1 (centres unmarked) | 7.13%
O=c1ccnc(Nc2ccc([N+](=O)[O-])cc2)[nH]1 | 19.8%
